Measurements: PubChem BioAssay AID360 (National Center for Advancing Translational Sciences (NCATS), 2006)
Screen size: about 48,000 compounds; about 550 (1.1%) were called active. Inconclusive results (about 4%) are left out. Rule as the data show it: active = potency below about 15 µM; inconclusive = mostly about 16 µM to 33 µM; inactive = weaker than that. Some of the results follow.

Biological target: Lysosomal acid glucosylceramidase (Homo sapiens) (UniProt P04062)
Assay: Glucocerebrosidase;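 also: the screen sought inhibitors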
Details: purified enzyme, resorufin glucoside fluorescence (screen aimed at inhibitors), 20 min
In short: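 Wild-type enzyme at 0.2 nM final in 50mM citric acid/KH2PO4, 10mM sodium taurocholate, 0.01% tween-20, pH 5.9, with resorufin beta-D-glucopyranoside at 30 uM final. Compounds titrated, 20 min at RT, red fluorescence read; AC50 from titration.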
Potency is read from the fitted curve at half-maximal effect.

UniProt P04062, sequence (P04062 whole entry, looked up): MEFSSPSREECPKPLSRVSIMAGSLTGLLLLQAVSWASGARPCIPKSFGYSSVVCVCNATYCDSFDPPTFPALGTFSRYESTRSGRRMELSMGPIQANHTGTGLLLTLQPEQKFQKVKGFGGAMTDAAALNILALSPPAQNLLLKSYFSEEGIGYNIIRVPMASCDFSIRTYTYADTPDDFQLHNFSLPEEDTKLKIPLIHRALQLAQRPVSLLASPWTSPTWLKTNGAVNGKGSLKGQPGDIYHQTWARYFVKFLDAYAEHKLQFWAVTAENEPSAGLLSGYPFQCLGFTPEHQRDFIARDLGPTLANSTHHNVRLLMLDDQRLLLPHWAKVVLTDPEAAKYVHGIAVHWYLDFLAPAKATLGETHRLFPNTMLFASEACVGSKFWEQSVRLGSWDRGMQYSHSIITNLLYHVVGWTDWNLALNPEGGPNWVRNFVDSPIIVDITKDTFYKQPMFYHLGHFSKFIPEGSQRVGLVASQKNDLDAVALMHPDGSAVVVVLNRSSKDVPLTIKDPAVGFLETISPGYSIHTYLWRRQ

Potency, inactive:
C#CCOC(=O)c1ccccc1C(=O)N(CC)CC > 76.9 µM
COc1ccccc1N1CCN(C(=O)C(F)F)CC1 > 76.9 µM
O=C(c1cccs1)N(Cc1ccco1)C1CCS(=O)(=O)C1 (stereo not drawn) > 76.9 µM
N#Cc1nc(-c2ccccc2)oc1N1CCCCC1 > 76.9 µM
Nc1c(S(=O)(=O)c2ccccc2)c2nc3ccccc3nc2n1/N=C/c1cccc(O)c1 > 76.9 µM
COc1ccc2c(c1)OCC1=C2CCC2(C)C(=O)CC=C12 (stereo not drawn) > 76.9 µM
Cc1ccc2cc(S(=O)(=O)NCCCC(=O)O)ccc2c1 > 76.9 µM
CN(C)CCCN1C(=O)C(=O)/C(=C(/O)c2ccc3c(c2)OCO3)C1c1cccnc1 (stereo not drawn) > 76.9 µM
CC(=O)c1cccc(NC(=O)NCc2ccccn2)c1 > 76.9 µM
Cn1c(=O)c2c(nc(NCCCN3CCOCC3)n2Cc2ccc(Cl)cc2Cl)n(C)c1=O > 76.9 µM
Cc1ccc(O)c(NC(=O)C2CC(c3c(F)cccc3Cl)=NO2)c1 (stereo not drawn) > 76.9 µM
CC(=O)C1=C(C)Nc2ncnn2C1c1ccccc1OCc1ccccc1 (stereo not drawn) > 76.9 µM
CCOC(=O)CN(Cc1ccccc1)S(=O)(=O)c1ccc(NC(C)=O)cc1 > 76.9 µM
O=C(CSc1nc2ccccc2[nH]1)c1cccs1 > 76.9 µM
Cc1nnc(SCCc2ccccc2)[nH]c1=O > 76.9 µM
CCN(CC)CCCNC(=O)C1CCC(=O)N(c2ccc(OC)cc2)C1c1ccc(F)cc1 (stereo not drawn) > 76.9 µM
O=C(Cn1nnc(-c2ccc3c(c2)OCO3)n1)NCc1ccco1 > 76.9 µM
O=C(CCNc1ccc(F)cc1)c1ccco1 > 76.9 µM
COc1ccc(S(=O)(=O)NCc2ccc(C(=O)N3CCN(c4ccccn4)CC3)cc2)cc1 > 76.9 µM
COC(=O)c1c(NC(=O)c2ccoc2C)sc2c1CCC2 > 76.9 µM
CCN1CC2=C(OC(N)=C(C#N)C2c2cccs2)/C(=C/c2cccs2)C1 (stereo not drawn)
COc1ccc(-c2nnc(-c3ccc(N)cc3)o2)cc1 > 76.9 µM
CCc1ccc2[nH]c(=O)c(CN(CCN(CC)CC)C(=O)NC3CCCCC3)cc2c1 > 76.9 µM
CCC(Sc1nc2n[nH]c(C)c2c(=N)n1-c1ccc(C)c(Cl)c1)C(=O)N1CCOCC1 (stereo not drawn) > 76.9 µM
COc1ccc(C(CNC(=O)c2cc(=O)[nH]c3ccccc23)N2CCCC2)cc1 (stereo not drawn) > 76.9 µM
Cc1csc(N2CCc3ccccc32)n1 > 76.9 µM
O=C1c2oc3ccccc3c(=O)c2C(c2ccc(Cl)cc2)N1c1ncccn1 (stereo not drawn) > 76.9 µM
COc1ccc(C(=O)NCCNC(C)=O)cc1S(=O)(=O)NCc1ccc(Cl)cc1 > 76.9 µM
CCOCCn1c(CN2CCC(Cc3ccccc3)CC2)nc2c1c(=O)n(C)c(=O)n2C > 76.9 µM
Cc1ccc(N(CC(=O)Nc2ccc(C)cn2)S(=O)(=O)c2c(C)nn(C)c2C)cc1 > 76.9 µM
CCOC(=O)N1CCN(S(=O)(=O)c2cc3c(cc2C)NC(=O)CO3)CC1 > 76.9 µM
CCN(CC)S(=O)(=O)c1ccc2oc(C(=O)Nc3ccc(OC)cc3OC)c(C)c2c1 > 76.9 µM
Cc1cc(N2CCN(C(=O)c3ccco3)CC2)n2nc(-c3cccc(Cl)c3)cc2n1 > 76.9 µM
CCCN(c1ccc(C(C)C)cc1)S(=O)(=O)c1c(C)[nH]c(=O)[nH]c1=O > 76.9 µM
Cc1ccc(C)c(OCC(=O)Nc2ccc3c(c2)OCO3)c1C > 76.9 µM
O=C(NC1CCCC1)C1CCCN(S(=O)(=O)c2ccc(-n3cnnn3)cc2)C1 (stereo not drawn) > 76.9 µM
Cc1cc(NC(=O)CSc2nc3ccccc3c(=O)n2C2CCCC2)no1 > 76.9 µM
O=C(C1CCN(S(=O)(=O)N2CCC3(CC2)OCCO3)CC1)N1CCc2ccccc2C1 > 76.9 µM
COC(=O)/C=c1\sc2ncnn2c1=O > 76.9 µM
O=C(CCCn1c(SCC(=O)c2ccc(Cl)cc2)nc2ccccc2c1=O)NCc1ccco1 > 76.9 µM
Cc1cc(Cl)ccc1OCC(=O)Nc1ccccc1CO > 76.9 µM
O=C1CC(c2ccccc2)CC(O)=C1C=NCCCN1CCOCC1 (stereo not drawn) > 76.9 µM
COc1cc2nc(=S)n3[nH]c(CCn4c(C)nc5ccccc54)nc3c2cc1OC > 76.9 µM
COc1ccc(N(CC(=O)NCC2CCCO2)S(=O)(=O)c2c(C)noc2C)cc1 (stereo not drawn) > 76.9 µM
C=CCn1c(Cc2csc(N)n2)nnc1SCC(=O)Nc1ccc(C(=O)OCC)cc1 > 76.9 µM
COc1ccc(-c2noc(CN(C(=O)C(C)(C)C)C(C)C)n2)cc1 > 76.9 µM
CCOC(=O)C1CCN(C(=O)c2oc3ccc(S(=O)(=O)N4CC(C)CC(C)C4)cc3c2C)CC1 (stereo not drawn) > 76.9 µM
COC(=O)c1c(N)n(-c2cc(OC)cc(OC)c2)c2nc3ccccc3nc12 > 76.9 µM
CCC(CC)COC(=O)C(C#N)c1nc2ccccc2nc1N1CCOCC1 (stereo not drawn) > 76.9 µM
CCc1cccc(NC(=O)CN(C)S(=O)(=O)c2cnc[nH]2)c1 > 76.9 µM
CN(CC(=O)Nc1ccc(F)c(Cl)c1)S(=O)(=O)c1cccc2nsnc12 > 76.9 µM
N#Cc1cnn(Cc2ccc(Cl)cc2)c1N > 76.9 µM
CC(=O)c1c(C)[nH]c(C(=O)N2CCc3ccccc32)c1C > 76.9 µM
O=c1[nH]cnc2c1N1CCC2CC1 > 76.9 µM
COc1cc(NC(=O)CSc2nc(C)cs2)cc(OC)c1 > 76.9 µM
CCOC(=O)C1=C(C)NC(=O)NC1c1cc(Br)c(O)c(OC)c1 (stereo not drawn) > 76.9 µM
Cc1ccc(C)c(N2CCN(C(=O)CN3C(=O)c4ccccc4C3=O)CC2)c1 > 76.9 µM
CC1=C(C(=O)OC(C)C)C(C)C(C(=O)OC(C)C)=C(C)N1
COC(=O)c1ccc(NC(=O)CCn2c(=O)oc3ccccc32)cc1 > 76.9 µM
COc1cccc(C2/C(=C(/O)c3ccncc3)C(=O)C(=O)N2CCCN(C)C)c1 (stereo not drawn) > 76.9 µM
CCOC(=O)c1sc(=NC(=O)c2cc(OC)c(OC)c(OC)c2)n(C)c1C > 76.9 µM
O=C(NCC1CCCO1)c1cccc(N2CCCC2=O)c1 (stereo not drawn) > 76.9 µM
CCn1c(SCC(=O)Nc2ccc(OC)c(OC)c2)nnc1-c1cccs1 > 76.9 µM
COc1ccccc1OCCC(=O)OCCN1C(=O)c2ccccc2C1=O > 76.9 µM
Cc1cc(C)c(C#N)c(SCS(=O)c2ccc(C(C)(C)C)cc2)n1 (stereo not drawn) > 76.9 µM
Cc1cc(C)c2c(n1)nn1c(NCCOCCO)cc(C)nc21 > 76.9 µM
CN(C(=O)c1ccc(S(=O)(=O)NC2CCCC2)cc1)C1CCCCC1 > 76.9 µM
COCCCNC(c1ccccc1)c1ccncc1 (stereo not drawn) > 76.9 µM
O=C(CSc1nnnn1-c1cccc2ccccc12)N1CCOCC1 > 76.9 µM
COCCn1c(=O)[nH]c2cc(C(=O)NCCN3CCN(c4ccccc4F)CC3)ccc2c1=O > 76.9 µM
O=C(CSc1nnc(CNc2ccc(F)cc2)o1)N1CCN(C(=O)c2ccco2)CC1 > 76.9 µM
CCn1c(CNc2ccc(Cl)cc2)nnc1SCC(=O)NCc1ccccc1 > 76.9 µM
CC1(C)CC(=O)C2=C(C1)OC(N)=C(C#N)C21C(=O)N2CCCc3cccc1c32 (stereo not drawn) > 76.9 µM
COc1ccc(OCC(=O)Nc2ccc(S(=O)(=O)Nc3cc(C)nc(C)n3)cc2)cc1 > 76.9 µM
COc1ccc(N(CN2C(=O)c3ccccc3C2=O)C(=O)C(C)C)cc1 > 76.9 µM
CN1C(=O)c2ccccc2C(C(=O)NCc2ccco2)C1c1c[nH]c2ccccc12 (stereo not drawn) > 76.9 µM
CCc1c(C)nc2ncnn2c1N1CCC(C(=O)NCc2ccc3c(c2)OCO3)CC1 > 76.9 µM
Cc1cc(NC(=O)c2ccco2)ncc1NC(=O)Cc1ccccc1 > 76.9 µM
CCOC(=O)c1cccc(NC(=O)CSc2nnc(-c3ccoc3C)n2CCOC)c1 > 76.9 µM
Cc1c2c(nc3nc4ccccc4n13)CCCC2=O > 76.9 µM
Cn1cnnc1SCC(=O)N(Cc1ccc2c(c1)OCO2)C1(C(=O)NC2CCCCC2)CCCC1 > 76.9 µM
CCOC(=O)C(C)n1nc(C)c2sc3ccccc3c2c1=O (stereo not drawn) > 76.9 µM
CCCN1CCN(CCCNC(=O)CN2C(=O)COc3ccccc32)CC1 > 76.9 µM
CC(NS(C)(=O)=O)C(c1cccs1)N1CCN(c2ccccc2F)CC1 (stereo not drawn) > 76.9 µM
O=C(CC12CC3CC(CC(C3)C1)C2)N1CCCOC1 > 76.9 µM
COC(=O)c1cc(Br)c(=O)n(CCN(C(C)C)C(C)C)c1 > 76.9 µM
CCOC(=O)C1CCCN(C(=O)c2cc(-c3ccccc3)on2)C1 (stereo not drawn) > 76.9 µM
COc1ccc(OCCCN2CCCC(C)C2)cc1 (stereo not drawn) > 76.9 µM
